PubChem BioAssay AID686979 (National Center for Advancing Translational Sciences (NCATS), 2013)
The whole screen tested about 420,000 compounds, of which about 50,000 (12%) were called active. The shares of active, inactive and inconclusive entries below differ from those in the screen. Calls come from the whole dose curve; as a rule, active = well fitted inhibition curve with a large enough effect; inconclusive = small, poorly fitted or top-dose-only effect; inactive = flat fitted curve, though single readings scatter. Potencies of inconclusive entries are left out as doubtful fits.

Assay: qHTS for Inhibitors of human tyrosyl-DNA phosphodiesterase 1 (TDP1): qHTS in cells in presence of CPT; note: nearly all actives have a fitted effect of over 55% in size
Settings: chicken DT40 Tdp1-/-;hTDP1 cells + 20 nM CPT, ATP luminescence, 48 h; activity change, negative = growth inhibition: at 46.2 µM (top of the series) unless noted
In short: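 Chicken DT40 Tdp1-/- cells stably complemented with human TDP1 were seeded at 400 cells/well in medium containing 20 nM camptothecin, exposed to pin-transferred compounds, and grown at 37 °C for at least 48 hr. Viability was read as ATP luminescence.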
% is set by controls: 0 for no effect and ±100 for the full control effect; potency is the fitted concentration of half-maximal effect; tags give direction and shape of the fitted curve.

Structure (SMILES)	Potency	activity change, negative = growth inhibition
COc1ccc(NC(=O)Cn2c(=O)c3ccccc3n3nncc23)c(OC)c1	inactive	–
CCOC(=O)C1CCN(C(=O)Nc2ccc(C)c(Cl)c2)CC1	inactive	–
CC(=O)c1c(C)oc2c1cc(NS(=O)(=O)c1ccc(C(C)(C)C)cc1)c1ccccc12	inconclusive [inhibitor, single point]	–
CC(=O)N(C(C)=O)c1ncc2c([nH]c3ccccc32)c1C#N	–	inconclusive: -34.5% [inhibitor]
CCOc1ccc(C(=O)N/N=C/c2ccc(SC)cc2)cc1	inactive	–
Cc1ccc(/C=N/N2CCN(c3ccc(Cl)cc3)CC2)o1	inconclusive [inhibitor, single point]	–
CCOC(=O)C1=CN(Cc2ccc(OC)cc2)C=C(C(=O)OCC)C1c1cccs1	inconclusive [inhibitor, single point]	–
COc1ccc(NC(=O)c2cc(S(=O)(=O)N3CCCC3)ccc2OC)cc1	inconclusive [inhibitor, single point]	–
O=C(Nc1cccc2ccccc12)c1cnccn1	inactive	–
Cc1cc(C(=O)OCC(=O)NCc2ccccc2)c2ccccc2n1	–	inconclusive: -30.4% [inhibitor]
CCN1CCN(CCc2nc3cc(NC(=O)COc4ccc(Cl)cc4)ccc3n2C)CC1	inconclusive [inhibitor, single point]	–
Cc1cc(C)c(NC(=O)CSc2nnc(Cc3cccn3C)n2-c2ccc(F)cc2)c(C)c1	–	inconclusive: -30.8% [inhibitor]
Clc1ccc2c(c1)-c1nnc(Br)n1-c1ccccc1S2	inconclusive [inhibitor, single point]	–
CCOc1ccc(S(=O)(=O)N(CC(=O)NCc2cccnc2)c2ccc(C)cc2)cc1	inconclusive [inhibitor, single point]	–
c1ccc2c(Nc3ccncc3)nc(-c3ccoc3)nc2c1	inconclusive [inhibitor, single point]	–
CC1CC(C)CN(CC(=O)N2CCc3[nH]c4ccccc4c3C2)C1 (configuration not stated)	inconclusive [inhibitor, partial curve]	–
CC1CCCCN1C(=O)C1CCCCN1S(=O)(=O)c1cccc([N+](=O)[O-])c1 (configuration not stated)	inconclusive [inhibitor, single point]	–
COc1ccccc1N1CCN(C2CCCN(Cc3cc(F)cc(F)c3)C2)CC1 (configuration not stated)	inactive	–
COc1ccccc1CC(=O)OC(C)C(=O)Nc1ccc(S(=O)(=O)N2CCCCC2)cc1 (configuration not stated)	inconclusive [inhibitor, single point]	–
Cc1cc(C(=O)CN2CCN(CC(=O)Nc3cccc(F)c3)CC2)c(C)n1C1CC1	inactive	–
Clc1ncnc2c1oc1ccccc12	inconclusive [inhibitor, partial curve, poor fit]	–
CCOC(=O)COc1cnc2ccccc2n1	inactive	–
O=C(CNc1cccc2ccccc12)N/N=C/c1ccc(OC(=O)/C=C/c2ccco2)cc1	inconclusive [inhibitor, single point]	–
COc1ccc(C2C(C(=O)Nc3cccc(OC)c3)c3ccccc3C(=O)N2C)cc1 (configuration not stated)	inactive	–

Structure (SMILES)	Potency	activity change, negative = growth inhibition
O=C(NCc1nnc(SCC(=O)N2CCC(Cc3ccccc3)CC2)o1)c1ccccc1F	inconclusive [inhibitor, single point]	–
Nc1c(S(=O)(=O)c2ccccc2)c2nc3ccccc3nc2n1/N=C/c1ccco1	inconclusive [inhibitor, single point]	–
O=C(Nc1cccc(-c2nnc(-c3ccco3)o2)c1)c1ccccc1	inconclusive [inhibitor, single point]	–
O=C(OCC(=O)N1CCc2ccccc21)c1ccc[nH]c1=O	inactive	–
O=C(Nc1ccccc1N1CCOCC1)c1cc(Cl)c2c(c1)OCO2	inconclusive [inhibitor, single point]	–
Cc1ccc(CNC(=O)COC(=O)COc2ccc(C#N)cc2)cc1	inactive	–
CCC(=O)N1CCC1(C)C(=O)Nc1cccc2c1CCCC2 (configuration not stated)	inactive	–
Cc1noc(C)c1C(=O)Nc1cc(Cl)ccc1N1CCOCC1	inconclusive [inhibitor, single point]	–
CCOc1ccccc1NC(=O)c1ccc(F)c(S(=O)(=O)N2CCN(c3ccc(F)cc3)CC2)c1	inconclusive [inhibitor, single point]	–
O=C(Oc1ccccc1)c1ccc2nccnc2c1	inactive	–
CNC(=O)/C(C#N)=c1\s/c(=C/C(=O)OC)c(=O)n1-c1ccccc1	inconclusive [inhibitor, partial curve]	–
CC1CCCN(c2nc3c(c(=O)n(C)c(=O)n3C)n2Cc2ccccc2)C1 (configuration not stated)	inconclusive [inhibitor, single point]	–
Cc1ccc(NC(=O)COC(=O)CSC(=S)N2CCOCC2)cc1C	inactive	–
COc1cccc(C(=O)Nc2nnc(S(=O)(=O)N(C)Cc3ccccc3)s2)c1	inconclusive [inhibitor, single point]	–
C[C@@H]1CN([C@H](C)CO)C(=O)CCCn2nncc2CO[C@H]1CN(C)Cc1cccc(C(=O)O)c1	inactive	–
COc1cc(NC(=O)COC(=O)c2n[nH]c3ccccc23)c(C)cc1[N+](=O)[O-]	inconclusive [inhibitor, partial curve]	–
O=C(c1ccco1)N(Cc1ccccc1)c1cccc([N+](=O)[O-])c1	inactive	–
COc1ccc(NS(=O)(=O)c2ccc(C)c(C(=O)NCCCn3ccnc3)c2)cc1	inactive	–
CCC(C(=O)N1CCN(c2ncccn2)CC1)c1ccccc1 (configuration not stated)	inconclusive [inhibitor, single point]	–
CC1(C)Cc2c(sc3ncn4nc(-c5ccco5)nc4c23)CO1	inconclusive [inhibitor, single point]	–
COc1ccc(C(=O)N2CCCc3ccccc32)cc1OC	inactive	–
Cc1cc(OCCn2ccnc2)ccc1C(C)C	inactive	–
Nc1nc(Nc2ccccc2)nc(NCc2ccco2)c1[N+](=O)[O-]	inconclusive [inhibitor, single point]	–
